Each structure is given as a SMILES string.

In the test the target is T1, Ph14372 (CYP71BE54) (Sinopodophyllum hexandrum, UniProt A0A0N9HT29).
T1 sequence (A0A0N9HT29 1-507): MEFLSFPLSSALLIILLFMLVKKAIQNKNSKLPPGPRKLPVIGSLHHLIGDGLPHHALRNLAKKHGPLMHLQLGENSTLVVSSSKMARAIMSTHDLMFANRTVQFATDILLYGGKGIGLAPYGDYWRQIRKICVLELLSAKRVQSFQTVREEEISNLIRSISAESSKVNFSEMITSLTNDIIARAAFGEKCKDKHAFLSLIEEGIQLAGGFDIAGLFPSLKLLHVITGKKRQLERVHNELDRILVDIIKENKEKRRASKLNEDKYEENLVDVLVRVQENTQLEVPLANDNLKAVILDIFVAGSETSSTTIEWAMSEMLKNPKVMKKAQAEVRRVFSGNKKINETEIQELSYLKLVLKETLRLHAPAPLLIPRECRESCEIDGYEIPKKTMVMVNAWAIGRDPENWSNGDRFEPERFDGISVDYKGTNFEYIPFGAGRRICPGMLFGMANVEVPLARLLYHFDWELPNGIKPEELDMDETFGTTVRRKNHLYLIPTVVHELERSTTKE
Briefly: yeast microsome turnover, LC-MS. Type of test: biochemical. The settings on record: 4′-O-demethylation.

Take `COc1cc([C@@H]2c3cc4c(cc3C[C@H]3COC(=O)[C@@H]32)OCO4)cc(OC)c1OC` [(−)-deoxypodophyllotoxin]: the “yeast microsome turnover, LC-MS” value is recorded as “isolated CYP71BE54 microsomes accepted (−)-deoxypodophyllotoxin as a substrate”.

Values taken from article PMC6861171 (Science (New York, N.Y.), 2015).
